The whole screen tested about 110,000 compounds, of which about 230 (0.21%) showed an effect of 50% or more. The list shows a part of the results.
These molecules were tested against DPAP1 (Plasmodium falciparum, UniProt Q8IIJ9) (assay: primary screen, percent inhibition; read by cleavage of a fluorogenic dipeptide substrate; higher = more effect of the substance).
Parameters: species or system P. falciparum D10 trophozoite lysates; single well
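Also: 30 min substrate incubation versus DMSO and 10 µM JCP410 controls.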

DPAP1, sequence (Q8IIJ9 whole entry, looked up): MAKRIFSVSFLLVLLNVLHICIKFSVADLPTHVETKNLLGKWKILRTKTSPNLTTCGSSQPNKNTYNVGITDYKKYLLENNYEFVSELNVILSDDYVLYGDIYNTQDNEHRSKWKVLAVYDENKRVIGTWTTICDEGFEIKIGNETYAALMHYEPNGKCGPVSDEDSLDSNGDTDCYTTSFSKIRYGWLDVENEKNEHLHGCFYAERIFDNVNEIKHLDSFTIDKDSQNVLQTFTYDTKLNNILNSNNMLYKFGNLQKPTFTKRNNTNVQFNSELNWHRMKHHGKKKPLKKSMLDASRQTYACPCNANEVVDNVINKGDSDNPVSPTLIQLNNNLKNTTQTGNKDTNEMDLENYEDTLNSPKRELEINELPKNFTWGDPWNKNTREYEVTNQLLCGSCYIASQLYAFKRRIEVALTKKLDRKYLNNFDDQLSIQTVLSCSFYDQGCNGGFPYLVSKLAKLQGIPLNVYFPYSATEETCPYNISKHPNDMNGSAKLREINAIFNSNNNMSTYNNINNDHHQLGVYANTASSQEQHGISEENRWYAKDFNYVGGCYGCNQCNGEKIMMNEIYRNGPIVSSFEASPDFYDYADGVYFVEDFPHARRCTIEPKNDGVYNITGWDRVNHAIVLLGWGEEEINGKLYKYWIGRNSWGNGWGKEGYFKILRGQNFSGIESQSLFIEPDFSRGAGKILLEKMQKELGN

Row | SMILES | % Inhibition @ 10 uM [%]
1 | c1ccc(OCCn2cnc3ccccc32)cc1 | 3.44
2 | Cc1ccc(S(=O)(=O)N2CCN(C)CC2)cc1C | -3.14
3 | CN1CCN(C(=O)CSc2nc3ccc(NC(=O)c4ccc(F)cc4)cc3s2)CC1 | 2.01
4 | COC(=O)c1ccc(-n2nnnc2SCC(=O)c2ccc(O)c(O)c2)cc1 | -7.46
5 | CCOC(=O)c1sc(C)c(C(=O)NC2CCCCC2)c1N | 2.65
6 | COc1ccc2occ(CC(=O)Nc3sc4c(c3C(N)=O)CCCC4)c2c1 | -4.91
7 | CC[C@H](C)[C@H](NC(=O)OCc1ccccc1)C(=O)Nc1cccc(NS(=O)(=O)c2ccc3c(c2)oc2ccccc23)c1 | -12.9
8 | O=S(=O)(c1ccccc1)c1nnn2c1nc(NC1CCCCCCC1)c1ccccc12 | 17.5
9 | Cc1ccsc1-c1ncnn1-c1ccccc1 | 3.05
10 | CCCc1cc2c(-c3ccccc3)cc(=O)oc2cc1O | 3.06
11 | C=CCSc1nc(-c2ccccc2)cc(-c2ccc(OC)cc2)c1C#N | -0.216
12 | COc1ccc2nc(C)c(C/C=C(/C)Cl)c(S)c2c1 | -3.77
13 | O=C(ON1C(=O)c2ccccc2C1=O)c1ccc(F)cc1 | 1.84
14 | CC(C)S(=O)(=O)C1=NSC2=NC(=O)/C(=C\c3ccc(SCc4ccccc4)o3)C(=N)N21 | -3.45
15 | COc1ccc(C(=O)Nc2ccc(OC)c(OC)c2)cc1 | -4.15
16 | CC1=C(C(=O)N2CCOCC2)C(c2ccc3c(c2)OCO3)C2=C(O)CCCC2=N1 (stereo not shown) | 6.48
17 | Fc1ccc(N2CCN(Cc3ccsc3)CC2)cc1 | 3.01
18 | COc1ccc(NC(=O)C2CCCN2C(=O)OC(C)(C)C)cc1 (stereo not shown) | 6.77
19 | O=C(O)C1(c2ccccc2)CCC(O)C1 (stereo not shown) | 1.4
20 | N#CC1=C(N)Oc2c(c(O)nc3ccccc23)C1c1ccccc1 (stereo not shown) | -2.21
21 | COc1cc(NC(=O)c2cnn(C)c2)c(OC)cc1Cl | 2.65
22 | O=C(Nc1c2c(nn1-c1ccc(F)cc1)CSC2)c1ccc(S(=O)(=O)N2CCOCC2)cc1 | -1.43

Row | SMILES | % Inhibition @ 10 uM [%]
23 | C=CCn1c(SCC(N)=O)nc2sc3c(c2c1=O)CC(C)(C)OC3 | -5.14
24 | CCN1CCCC1CNC(=O)C1CCN(c2nnc(N3CCCC3=O)s2)CC1 (stereo not shown) | -2.85
25 | Cn1cc(CCC(=O)NCCCN2CCC(N3CCCCC3)CC2)c2ccccc21 | -0.822
26 | CS(=O)(=O)CC[C@@H](C(=O)NCc1ccc(F)cc1)N1Cc2ccccc2C1=O | 2.93
27 | OC1(c2ccc(Br)cc2)CCN(Cc2ccc(Br)cc2)CC1 | -2.95
28 | Cc1nnc2sc(-c3ccccc3Cl)nn12 | -6.56
29 | CC(C)(C)c1cc(C(=O)Nc2ccccc2C(=O)O)cc(C(C)(C)C)c1 | -1.45
30 | COc1ccccc1C1=N/C(=C\c2ccc(F)cc2)C(=O)O1 | 6.86
31 | COc1ccc(S(=O)(=O)NCc2ccc(C(=O)NCCCOC(C)C)cc2)cc1 | -3.35
32 | O=C(/N=C1\SC2CS(=O)(=O)CC2N1c1ccc(Br)cc1)c1ccccc1 (stereo not shown) | -1.02
33 | COc1ccc(S(=O)(=O)Nc2nc3ccccc3s2)cc1 | -2.07
34 | Cc1cc(NC(=O)CSc2nc3c(sc4ccccc43)c(=O)n2CCCN2CCOCC2)[nH]n1 | 6.65
35 | CC(=O)c1cc(C#N)c(SCC(=O)c2cc3ccccc3oc2=O)nc1C | -1.6
36 | COC(=O)C1=CN(Cc2ccc(OC)c(OC)c2)C=C(C(=O)OC)C1c1cccs1 | -11.3
37 | CCOc1ccc(OCCSc2nc3ccccc3n2CC(O)CO)cc1 (stereo not shown) | -1.84
38 | CCc1ccccc1NC(=O)CN(c1cc(Cl)cc(Cl)c1)S(C)(=O)=O | 0.161
39 | N#CC1=C(N)OC2=C(C(=O)CCC2)C1c1ccc(Cl)cc1 (stereo not shown) | 4.73
40 | CCCCCCOc1ccc(COC2C(C(O)CO)OC3OC(C)(C)OC32)cc1 (stereo not shown) | -4.7
41 | N#CC1=C2SCN(Cc3ccco3)CN2C(=O)CC1c1ccc(Cl)cc1 (stereo not shown) | 42.2
42 | Cc1cc(C)c2c(-n3cccc3)nn(CC(=O)NCC3CCCO3)c2n1 (stereo not shown) | -2.99
43 | C=CCN1C(=O)N/C(=C/c2cc(Br)c(OCc3ccccc3C#N)c(OC)c2)C1=O | 1.4
44 | O=C(NCc1ccccc1)c1nccnc1CO | -1.08

Row | SMILES | % Inhibition @ 10 uM [%]
45 | CCOC(=O)N1CCC(NC(=O)c2ccc3c(Cl)c4c(nc3c2)CCCC4)CC1 | -3.68
46 | CCOC(=O)N1CCC(NC(=O)c2cc3sccc3n2CC)CC1 | -8.58
47 | CCOC(=O)N1CCN(C(=O)C2=C(C)C(=O)OC23CCCCC3)CC1 | 4.77
48 | CCSc1nc2c(c(=O)[nH]c(=O)n2C)n1Cc1ccccc1 | -0.864
49 | Cc1cccc2c1-c1sc(C(=O)N3CCC(C(N)=O)CC3)cc1CO2 | -1.37
50 | N#CC1=C2SCN(CCc3ccccc3)CN2C(=O)CC1c1ccc(F)cc1 (stereo not shown) | 51.6
51 | COc1ccc(C(=O)N2CCCC2)cc1OC | -5.57
52 | CCOc1sc2nc(C)n(CC(=O)NCc3ccccc3Cl)c(=O)c2c1C | 1.91
53 | CCOc1ccccc1NC(=O)C(C)Oc1ccccc1 (stereo not shown) | -2.29
54 | CCOc1ccccc1NC(=O)c1ccccc1OC | 3.53
55 | O=C(O)CNC(=S)N1CC2CC(C1)c1cccc(=O)n1C2 (stereo not shown) | 1.16
56 | Cc1ccccc1Cn1ccc(NC(=O)COCc2cc(-c3cccs3)on2)n1 | -0.501
57 | OCCN(Cc1ccccc1)Cc1ccccc1 | 1.62
58 | Cc1ccc2c(c1)c1c3n2CCN(C=O)C3CCC1 (stereo not shown) | -0.128
59 | Cc1cc(C)c(S(=O)(=O)NCCCn2ccnc2)c(C)c1 | 0.769
60 | Cc1cccc(N2C(=O)NC(=O)/C(=C\c3ccc(N(C)C)cc3)C2=O)c1 | 1.43
61 | O=C(Nc1cc(-c2ccccc2)[nH]n1)c1ccc(-c2ccccc2)cc1 | -1.25
62 | CCn1cc(/C=C(\NC(=O)c2ccccc2)C(=O)NCc2ccccc2)c2ccccc21 | -1.74
63 | COc1ccc(-c2noc(CN(C(=O)N3CCOCC3)C(C)C)n2)cc1 | -1.22
64 | O=C1CC(c2ccccc2)CC(=O)C1=CNCCc1ccccc1 (stereo not shown) | 3.04

From paper PMC6919601, “Identification of Plasmodium dipeptidyl aminopeptidase allosteric inhibitors by high throughput screening” (PLoS ONE, 2019)
